B1: PhoQ; a variant is named by its letters at X, in order, P23837 (parent)
chain: MKKLLRLFFPLSLRVRFLLATAAVVLVLSLAYGMVALIGYSVSFDKTTFRLLRGESNLFYTLAKWENNKLHVELPENIDKQSPTMTLIYDENGQLLWAQRDVPWLMKMIQPDWLKSNGFHEIEADVNDTSLLLSGDHSIQQQLQEVREDDDDAEMTHSVAVNVYPATSRMPKLTIVVVDTIPVELKSSYMVWSWFIYVLSANLLLVIPLLWVAAWWSLRPIEALAKEVRELEEHNRELLNPATTRELTSLVRNLNRLLKSERERYDKYRTTLTDLTHSLKTPLXXLQXXLRSLRSEKMSVSDAEPVMLEQISRISQQIGYYLHRASMRGGTLLSRELHPVAPLLDNLTSALNKVYQRKGVNISLDISPEISFVGEQNDFVEVMGNVLDNACKYCLEFVEISARQTDEHLYIVVEDDGPGIPLSKREVIFDRGQRVDTLRPGQGVGLAVAREITEQYEGKIVAGESMLGGARMEVIFGRQHSAPKDE

The list shows a part of the results.

Variants of B1 are the subject of this assay. The assay can be described thus: enrichment ratio after two sorts for PhoP signalling (ratio (wild type AVST 3.29)); higher = more functional. The conditions noted are these: with PhoP (E. coli).
As to LEFS, the enrichment ratio worked out at 8.31.
The figure for KFKA is ≤ 0.25.
The figure for NATW is ≤ 0.25.
Consider CVTI, for which the enrichment ratio was ≤ 0.25.
With NGHP, the enrichment ratio is ≤ 0.25.
Regarding RTHS, the enrichment ratio was ≤ 0.25.
As for WLKG, the enrichment ratio is ≤ 0.25.
The figure for TQCS is 15.1; for ADQQ it is ≤ 0.25.
The result for THST reads 7.93.
In the case of DGST, the enrichment ratio was ≤ 0.25.
Regarding CSSP, the enrichment ratio is ≤ 0.25.
The result for PGDV reads ≤ 0.25; that for VEEA, ≤ 0.25; that for YPIL, ≤ 0.25.
On to HYHG, for which the enrichment ratio was ≤ 0.25.
The figure for IVPV is ≤ 0.25.
The figure for RFWT is ≤ 0.25.
On to LHYP, for which the enrichment ratio is ≤ 0.25.
For SFGS, the enrichment ratio was ≤ 0.25.
As for AANK, the enrichment ratio is ≤ 0.25.
The result for DDGV reads ≤ 0.25; that for KRTV, ≤ 0.25.
The result for MNVA reads ≤ 0.25.
The result for TMSD reads 6.3; that for EDVY, ≤ 0.25; that for HPPW, ≤ 0.25.
On to VNSA, for which the enrichment ratio is ≤ 0.25.
For the variant PYES, the enrichment ratio was ≤ 0.25.
The result for ACSN reads 4.45; that for VAKC, ≤ 0.25; that for KMNR, ≤ 0.25.
With YPTN, the enrichment ratio was ≤ 0.25.
Turning to RHEC, the enrichment ratio was ≤ 0.25.
The figure for KERS is ≤ 0.25; for DDPE it is ≤ 0.25.
On to YTRV, for which the enrichment ratio is ≤ 0.25.
For TEVQ, the enrichment ratio is 0.253.
The figure for VCRW is ≤ 0.25.
For EMPQ, the enrichment ratio was ≤ 0.25.
In the case of MFKV, the enrichment ratio is ≤ 0.25.
The result for EDLN reads ≤ 0.25.
As for HSTC, the enrichment ratio is ≤ 0.25.
The figure for EDRH is ≤ 0.25; for IHGY it is ≤ 0.25.
The result for ADAH reads ≤ 0.25; that for VFGN, ≤ 0.25.
Regarding HHFP, the enrichment ratio was ≤ 0.25.
The figure for WFFS is ≤ 0.25; for RCET it is ≤ 0.25; for LGPN it is ≤ 0.25.
In the case of VTPL, the enrichment ratio is ≤ 0.25.
The result for HRCF reads ≤ 0.25.
The figure for QIIV is ≤ 0.25; for DLMA it is ≤ 0.25; for YICW it is ≤ 0.25.
For IQNW, the enrichment ratio is ≤ 0.25.
For the variant SHYW, the enrichment ratio is ≤ 0.25.
The figure for RFAH is ≤ 0.25; for QKYW it is ≤ 0.25.
In the case of SLWD, the enrichment ratio is ≤ 0.25.
The figure for PDRM is ≤ 0.25; for KYMV it is ≤ 0.25; for YPAI it is ≤ 0.25.
The result for IGNP reads ≤ 0.25.
In the case of PNTS, the enrichment ratio is ≤ 0.25.
For the variant MWWL, the enrichment ratio was ≤ 0.25.
Regarding ESWV, the enrichment ratio was ≤ 0.25.
For HFQK, the enrichment ratio was ≤ 0.25.
The result for FRMT reads ≤ 0.25; that for RRYP, ≤ 0.25; that for QMFF, ≤ 0.25.
In the case of QGHM, the enrichment ratio is ≤ 0.25.
The result for EMPF reads ≤ 0.25; that for NIWM, ≤ 0.25; that for PIWS, ≤ 0.25.
With MVVG, the enrichment ratio was ≤ 0.25.
Regarding YDSL, the enrichment ratio is ≤ 0.25.
The result for WCFD reads ≤ 0.25; that for FACV, ≤ 0.25; that for DTIS, ≤ 0.25.
The figure for MIRM is ≤ 0.25.
The result for QLHM reads ≤ 0.25; that for VYDI, ≤ 0.25.
With KFHR, the enrichment ratio is ≤ 0.25.
On to NANL, for which the enrichment ratio is ≤ 0.25.
The result for DTSD reads ≤ 0.25; that for RKVM, ≤ 0.25; that for QCMV, ≤ 0.25.
The result for SEFH reads 4.4; that for VSGF, ≤ 0.25.
In the case of LWTT, the enrichment ratio was ≤ 0.25.
The result for IWGA reads ≤ 0.25; that for HTRM, ≤ 0.25; that for FNWG, ≤ 0.25.
For the variant ADCD, the enrichment ratio is ≤ 0.25.
The result for TFHF reads ≤ 0.25; that for MYVP, ≤ 0.25; that for NFAS, ≤ 0.25.
Turning to RGYY, the enrichment ratio was ≤ 0.25.
As to SKGR, the enrichment ratio is ≤ 0.25.
AVSL: the enrichment ratio is 7.58.
With NKLL, the enrichment ratio was ≤ 0.25.
Regarding RPGC, the enrichment ratio was ≤ 0.25.
For PCPA, the enrichment ratio was ≤ 0.25.
The figure for KICI is ≤ 0.25.
As to NRTM, the enrichment ratio is ≤ 0.25.
On to THQC, for which the enrichment ratio amounted to 13.1.
For the variant TGWN, the enrichment ratio was ≤ 0.25.
Regarding YSIA, the enrichment ratio is ≤ 0.25.
As to KCDY, the enrichment ratio is ≤ 0.25.
For the variant LCFG, the enrichment ratio is ≤ 0.25.
As to VMYN, the enrichment ratio is ≤ 0.25.
NPSN: the enrichment ratio is ≤ 0.25.
Consider GPMT, for which the enrichment ratio is ≤ 0.25.
For the variant PGWL, the enrichment ratio is ≤ 0.25.
The figure for HHII is ≤ 0.25; for YSNW it is ≤ 0.25; for LVAH it is ≤ 0.25.
The result for PLQV reads ≤ 0.25.
The result for PFQD reads ≤ 0.25; that for WLWI, ≤ 0.25; that for FYMV, ≤ 0.25.
On to HAIH, for which the enrichment ratio is ≤ 0.25.
Regarding NYVY, the enrichment ratio was ≤ 0.25.
The figure for MCPN is ≤ 0.25.
The figure for VDRH is ≤ 0.25; for EHQI it is ≤ 0.25; for LPIP it is ≤ 0.25.
The result for IAEY reads ≤ 0.25.
TRPM: the enrichment ratio was ≤ 0.25.
The figure for IWRC is ≤ 0.25.
In the case of APRK, the enrichment ratio is ≤ 0.25.
As for HLHY, the enrichment ratio was ≤ 0.25.
For the variant GITP, the enrichment ratio is ≤ 0.25.
Regarding YGYY, the enrichment ratio is ≤ 0.25.
Regarding EPHR, the enrichment ratio is ≤ 0.25.
For RRFC, the enrichment ratio was ≤ 0.25.
The figure for GMKP is ≤ 0.25; for FCQG it is ≤ 0.25; for SGSE it is 15.4.
As for NMCF, the enrichment ratio is ≤ 0.25.
The result for GYDI reads ≤ 0.25; that for YTSM, 1.02.
The figure for DQVI is ≤ 0.25; for EFQP it is ≤ 0.25.
As for NGQD, the enrichment ratio was ≤ 0.25.
The result for RCFA reads ≤ 0.25; that for YCSF, ≤ 0.25; that for VYEI, ≤ 0.25.
Consider GDML, for which the enrichment ratio stood at 5.42.
The figure for PQPL is ≤ 0.25; for KGCV it is ≤ 0.25.

These data come from a collection of fitness landscapes (doi:10.1126/science.1257360).
